Measured values taken from the supplement of paper PMC8183993.
Counter-ions that a name gives are not always drawn. ± gives the standard deviation of the averaged measurements. Whole data set: some 3,200 compounds, median “nuclei count (viability) relative to DMSO” near 99, cut for the lowest 2% near 16. The list shows a part of the results.

What follows are compounds tested on U2OS (assay: nuclei count (viability) relative to DMSO (% of DMSO); higher = more viable cells). Settings: 10 µM; 24 h.
Method: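 Primary image-based screen in U2OS cells: compounds at 10 uM for 24 h, then a 1 h o-propargyl-puromycin (OPP) pulse, click labelling, and high-throughput microscopy. Mean cytoplasmic OPP intensity and nuclei count were normalised to DMSO wells within each plate (DMSO = 100) and averaged over triplicate plates.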

**Q.** With `CC(=O)OCOC(c1cc([N+](=O)[O-])ccc1Oc1ccc(Br)cc1)P(=O)(OCOC(C)=O)OCOC(C)=O` (configuration not stated) as the compound, how does the nuclei count read?
**A.** 102

**Q.** `CN(C)Cc1cccc(N=C(c2ccccc2)c2c(O)[nH]c3cc(C(=O)N(C)C)ccc23)c1` was tested. Which nuclei count did it give?
**A.** 73.2

**Q.** `C[C@@H]1C[C@H]2[C@@H]3C[C@H](F)C4=CC(=O)C=C[C@]4(C)[C@@]3(Cl)[C@@H](O)C[C@]2(C)[C@H]1C(=O)COC(=O)C(C)(C)C` [Clocortolone pivalate] was tested. Which nuclei count did it give?
**A.** 115

**Q.** With `CC1(C)C[C@@H]1C(=O)N/C(=C\CCCCSC[C@H](N)C(=O)O)C(=O)O` [Cilastatin sodium] as the compound, how does the nuclei count read?
**A.** 96.7

**Q.** Which nuclei count does the source give for `CC1(C)C[C@@H]1C(=O)N/C(=C\CCCCSC[C@H](N)C(=O)O)C(=O)O` [Cilastatin] here?
**A.** 91.5

**Q.** How did the nuclei count turn out when `Cc1c(C)c2c(c(C)c1OC(=O)CCC(=O)O)CC[C@@](C)(CCC[C@H](C)CCC[C@H](C)CCCC(C)C)O2` [Tocopherol succinate] was run?
**A.** 102

**Q.** How did the nuclei count turn out when `Oc1cc2c(cc1O)CN(C(=S)NCCc1ccc(Cl)cc1)CCC2` [Capsazepine] was run?
**A.** 98.3

**Q.** With `CCCCCCC(=O)OC1CC(C)(C)NC(C)(C)C1` [TMPH hydrochloride] as the compound, how does the nuclei count read?
**A.** 102

**Q.** With `O=C1Cc2c([nH]c3ccc(Br)cc23)-c2ccccc2N1` [Kenpaullone] as the compound, how does the nuclei count read?
**A.** 64 ± 3

**Q.** For `COc1ccc(CCN2CCN(CCCc3ccccc3)CC2)cc1OC`, which nuclei count is on record?
**A.** 110

**Q.** How did the nuclei count turn out when `CC[C@H]1OC(=O)C[C@@H](O)[C@H](C)[C@@H](O[C@@H]2O[C@H](C)[C@@H](O)[C@H](N(C)C)[C@H]2O)[C@@H](CCN2C[C@H](C)C[C@H](C)C2)C[C@@H](C)C(=O)/C=C/C(C)=C/[C@@H]1CO[C@@H]1O[C@H](C)[C@@H](O)[C@@H](OC)[C@H]1OC` [Tilmicosin] was run?
**A.** 106

**Q.** How did the nuclei count turn out when `CNCCCC12CCC(c3ccccc31)c1ccccc12` [Maprotiline hydrochloride] was run?
**A.** 91.9 ± 2

**Q.** For `CCc1c(O)cc(O)c(C(=O)c2ccc(OCCN3CCOCC3)c(OC)c2)c1CC(=O)N(CCOC)CCOC`, which nuclei count is on record?
**A.** 78.1

**Q.** `NCC1CCN(c2nccc(-c3ccc4ccccc4c3)n2)CC1` was tested. Which nuclei count did it give?
**A.** 21.1

**Q.** How did the nuclei count turn out when `Cc1cn2cc(C(=O)N(C)CCO)cc(N[C@@H]3CCOc4cccc(C)c43)c2n1` was run?
**A.** 104

**Q.** For `Cc1coc2c1C(=O)C(=O)c1c-2ccc2c1CCCC2(C)C` [Tanshinone IIA], which nuclei count is on record?
**A.** 101

**Q.** With `CC(C)(C)n1nc(-c2cccc3ccccc23)c2c(N)ncnc21` [1-Naphthyl PP1] as the compound, how does the nuclei count read?
**A.** 89.4

**Q.** For `COc1ccc2c(c1)c(CC(=O)N1CCOCC1)c(C)n2C(=O)c1ccc(Cl)cc1`, which nuclei count is on record?
**A.** 100

**Q.** For `OC(c1cc(C(F)(F)F)nc2c(C(F)(F)F)cccc12)C1CCCCN1` (configuration not stated) [Mefloquine hydrochloride], which nuclei count is on record?
**A.** 10.7

**Q.** How did the nuclei count turn out when `C[C@@H]1O[C@@H](OC[C@H]2O[C@@H](Oc3c(-c4ccc(OCCO)c(OCCO)c4)oc4cc(OCCO)cc(O)c4c3=O)[C@H](O)[C@@H](O)[C@@H]2O)[C@H](O)[C@H](O)[C@H]1O` [Troxerutin] was run?
**A.** 106

**Q.** Which nuclei count does the source give for `CCN(CC)C(=O)/C(C#N)=C/c1cc(O)c(O)c([N+](=O)[O-])c1` [Entacapone] here?
**A.** 102

**Q.** `C[C@]12C=CC(=O)C=C1CC[C@H]1[C@@H]3C[C@@H](O)[C@](O)(C(=O)CO)[C@@]3(C)C[C@H](O)[C@@]12F` [Triamcinolone (Aristocort)] was tested. Which nuclei count did it give?
**A.** 87.1

**Q.** For `C[C@]12C=CC(=O)C=C1CC[C@H]1[C@@H]3C[C@@H](O)[C@](O)(C(=O)CO)[C@@]3(C)C[C@H](O)[C@@]12F` [Triamcinolone], which nuclei count is on record?
**A.** 95.5

**Q.** Which nuclei count does the source give for `CC1(C)O[C@@H]2C[C@H]3[C@@H]4CCC5=CC(=O)CC[C@]5(C)[C@@]4(F)[C@@H](O)C[C@]3(C)[C@]2(C(=O)CCl)O1` [Halcinonide] here?
**A.** 98.5

**Q.** `CCN(CCN(C)C)C(=O)CNCc1cc(C(N)=O)ccn1` was tested. Which nuclei count did it give?
**A.** 97.8

**Q.** Which nuclei count does the source give for `CC(=O)O[C@H]1C[C@@H]2CC[C@@H]3[C@H](CC[C@@]4(C)[C@H]3C[C@H]([N+]3(C)CCCCC3)[C@@H]4OC(C)=O)[C@@]2(C)C[C@@H]1N1CCCCC1` [Vecuronium Bromide] here?
**A.** 108

**Q.** `CC(=O)O[C@H]1C[C@@H]2CC[C@@H]3[C@H](CC[C@@]4(C)[C@H]3C[C@H]([N+]3(C)CCCCC3)[C@@H]4OC(C)=O)[C@@]2(C)C[C@@H]1N1CCCCC1` [Vecuronium bromide] was tested. Which nuclei count did it give?
**A.** 98.3

**Q.** `CCCCCCCC/C=C\CCCCCCCC(=O)NCCO` [Oleylethanolamide] was tested. Which nuclei count did it give?
**A.** 107

**Q.** For `CCCCCCCC/C=C\CCCCCCCC(=O)NCCO` [N-Oleoylethanolamide], which nuclei count is on record?
**A.** 105

**Q.** How did the nuclei count turn out when `CC(=O)NCC(=O)N[C@H](CCC(=O)O)C(=O)O` [N-Acetylglycyl-D-glutamic acid] was run?
**A.** 105

**Q.** How did the nuclei count turn out when `C[C@@H](O)[C@H]1C(=O)N2C(C(=O)O)=C(S[C@@H]3CN[C@H](C(=O)N(C)C)C3)[C@H](C)[C@H]12` [Meropenem] was run?
**A.** 105.9 ± 0.61

**Q.** `O=c1c(-c2ccc(O)cc2)coc2cc(O)ccc12` [Daidzein] was tested. Which nuclei count did it give?
**A.** 109

**Q.** Which nuclei count does the source give for `O=C(O)CCCCC(CCSCc1ccccc1)SCc1ccccc1` (configuration not stated) here?
**A.** 109

**Q.** Which nuclei count does the source give for `CC1(C)CC[C@]2(C(=O)O)CC[C@]3(C)C(=CC[C@@H]4[C@@]5(C)CC[C@H](O)C(C)(C)[C@@H]5CC[C@]43C)[C@@H]2C1` [Oleanolic Acid (Caryophyllin)] here?
**A.** 109

**Q.** `CC(C)NC[C@H](O)COc1cccc2ccccc12` [(S)-propranolol hydrochloride] was tested. Which nuclei count did it give?
**A.** 103

**Q.** Which nuclei count does the source give for `CC(C)NC[C@H](O)COc1cccc2ccccc12` [(S)-(-)-Propranolol hydrochloride] here?
**A.** 90.8

**Q.** Which nuclei count does the source give for `CC(C)(C)c1nc(-c2cccc(NS(=O)(=O)c3c(F)cccc3F)c2F)c(-c2ccnc(N)n2)s1` here?
**A.** 106.4 ± 0.54

**Q.** For `CC(=O)N(OCc1ccccc1)[C@H]1c2cc(C#N)ccc2OC(C)(C)[C@H]1O`, which nuclei count is on record?
**A.** 97.1

**Q.** For `C[C@H]1O[C@@H](n2cc(F)c(=O)[nH]c2=O)[C@H](O)[C@@H]1O` [Doxifluridine], which nuclei count is on record?
**A.** 94.4

**Q.** With `N[C@@H](Cc1cc(CP(=O)(O)O)cc(-c2ccccc2Cl)c1)C(=O)O` as the compound, how does the nuclei count read?
**A.** 100

**Q.** How did the nuclei count turn out when `OCC1OC(n2cnc3c(NC4CCCC4)nc(Cl)nc32)C(O)C1O` (configuration not stated) [2-Chloro-N6-cyclopentyladenosine] was run?
**A.** 93.5

**Q.** Which nuclei count does the source give for `OCCN1CCN(CCCN2c3ccccc3C=Cc3ccccc32)CC1` [Opipramol dihydrochloride] here?
**A.** 113
